{"source": "paper PMC12136788", "binders": {"B1": {"name": "chr6:87085629:87085739:-|3pUTR|ENSG00000135346|unk|FALSE|unique (ssRNA)", "RNA": "GGGAGUUCUACAGUCCGACGAUCGUUUUACCAAGUGCUGUCUUGAUGACUGCUGAUUUUCUGGAAUGGAAAAUUAAGUUGUUUAGUGUUUAUGGCUUUGUGAGAUAAAACUCUCCUUUUCCUUACCAUACCACUUUGACACGCCAACAGAGGAUUGAGCAUCA"}, "B2": {"name": "chr15:34978960:34979061:-|3pUTR|ENSG00000198146|msi1|total|mutant (ssRNA)", "RNA": "GGGAGUUCUACAGUCCGACGAUCGCCCUCUGUAUCCAUGUACUCUGCAUCUGUGGAUUAAACCAAUUGCAGAUCAAAAAUAUCCGAAAAAAUAAAAAUAAUACAAAUAAAAAUACAGUAUAACAGUUAUUUAAACCGCAUUUACAACAGAGGAUUGAGCAUCA"}, "B3": {"name": "chr4:177430861:177430962:-|3pUTR|ENSG00000038002|msi1|FALSE|unique (ssRNA)", "RNA": "GGGAGUUCUACAGUCCGACGAUCUUUACUAAUUCCUUGUGCAGAGGUGGGUAUGGCAAUUAGAAGUCAAGAAAUGGGUUGUUUAGCUUGGUUUGUUUCCCUAACUUCUGAUUAACUCUCUGUAUGACAACUCUACAGAAGUUGCAACAGAGGAUUGAGCAUCA"}, "B4": {"name": "chr2:30910466:30910900:-|three_prime_utr|ENSG00000158089|control|control|control (ssRNA)", "RNA": "GGGAGUUCUACAGUCCGACGAUCUCCUUUUCCUACAAAGGAAGCAGUCUCUGGAGGCCAGAAAGAAAAGCCUUCUUUUUCACUAGGCCAGGACUACAUUGAGAGAUGAAGAAUGGAGGUUGUUUCCAAAAGAAAUAAAGAGAACAACAGAGGAUUGAGCAUCA"}, "B5": {"name": "chr22:38483724:38483825:-|3pUTR|ENSG00000100201|msi1|FALSE|bound_elsewhere (ssRNA)", "RNA": "GGGAGUUCUACAGUCCGACGAUCACUUAUAAUUCAGGUUCUGCUGUUGGCUUCAGAACAUGAGCAGAAGAAUCGUUUUAUGCUAGUUAUUGCAUUCAUGGUUGAAACUCAACUUAGGGAAAGGGUUCCAAUGUAUUAAGCAAUCAACAGAGGAUUGAGCAUCA"}, "B6": {"name": "chr7:77779054:77779164:+|CDS|ENSG00000187257|unk|total|mutant (ssRNA)", "RNA": "GGGAGUUCUACAGUCCGACGAUCUAAAUUUGAAAACCGCAACAAAGAUUUAAAGGAAGAAUUGUGCCCUGGAAAUCUAAGUCCCGUUGAUACAAGGCAACACAGUUCAGCACAUUCAAAUCAAGAUAAAAAAGACGAUGACAUCAACAGAGGAUUGAGCAUCA"}, "B7": {"name": "chr9:130136078:130136182:+|3pUTR|ENSG00000148358|msi1_unk|total|mutant (ssRNA)", "RNA": "GGGAGUUCUACAGUCCGACGAUCAGUCCAAGCAAAUCAUCCCCAUUAAAAAGCUUUUCCUGCCGGCCCGCCGGAUUUCUAAACCGAUGAAUUCAACAGACUUGGUCCCCACCGUCCAAGAGUAUGUAUGUGAAGAAAGUGAGCCAACAGAGGAUUGAGCAUCA"}, "B8": {"name": "chr4:56994692:56994796:+|CDS|ENSG00000047315|unk|total|mutant (ssRNA)", "RNA": "GGGAGUUCUACAGUCCGACGAUCAAAAACAGUCAUUAAAGAAGGUGAAGAACAACUUCAGACUCAGCAUCAGAAAACUUUUACCGGAAAAAUUCCAAUUAUGUUGCGGUCAACUUACUGCCUUUUGAAUGGCUUGACAGAUCGCAACAGAGGAUUGAGCAUCA"}, "B9": {"name": "chr19:1925360:1925461:+|3pUTR|ENSG00000227500|msi1|total|mutant (ssRNA)", "RNA": "GGGAGUUCUACAGUCCGACGAUCUCUCGAACUCCUGACCUCAAGUGAUCCACCCGCCUUGGCCUCCCAAAGUGCUGGGAUAACCGGUGUCAGCCACCGCGCCCAGCCUGGAGUGGCCUUUUAUGAGAGGGGACCCGUCAAAUCCAACAGAGGAUUGAGCAUCA"}, "B10": {"name": "chr10:30313878:30313980:-|CDS|ENSG00000107951|unk|total|mutant (ssRNA)", "RNA": "GGGAGUUCUACAGUCCGACGAUCUGUUUUUAUAUUUAAGCCCUUCAUGUACUUACUCAUUUUUUCUUCUGUGUAAUAAUCUACCGGGAAGGGAGCAAAACAAACCUGAUUCUUCUCCUCUGUACAUUCAGAAUCCAUUUGAAACAACAGAGGAUUGAGCAUCA"}, "B11": {"name": "ENSG00000198589:be:win_3751|CDS|ENSG00000198589|bound_else_gene|NA|bound_elsewhere_windowed (ssRNA)", "RNA": "GGGAGUUCUACAGUCCGACGAUCACAGAUACUGAGAGGCUGGAGUUGAAGGCCAGUCCCAACGUGGAAGCACCUCAACCUCAUCGACAUGUGCUUGAGAUAUCAAGGCAACAUGAGCAGCCAGGGCAAGGAAUAGCACCAGAUCAACAGAGGAUUGAGCAUCA"}, "B12": {"name": "chr2:216672738:216672882:-|3pUTR|ENSG00000115461|msi1|total|mutant (ssRNA)", "RNA": "GGGAGUUCUACAGUCCGACGAUCUUCUCUCCGGCUUUUGUUUCUAUUUCAAACAUACUUUCUUGGUUUUCUAAUGGAGUAUACCGUUCCGUCAUUUCACAGACUCUGGCCUCCUCUCCUGAAAUCCUUUUGGAUGGGGAAAGGCAACAGAGGAUUGAGCAUCA"}, "B13": {"name": "ENSG00000070961:be:win_5651|3pUTR|ENSG00000070961|bound_else_gene|NA|bound_elsewhere_windowed (ssRNA)", "RNA": "GGGAGUUCUACAGUCCGACGAUCGUUUCUAGUCUUGGUUUUGCCAUUAAUGUGCUGCAUGAUCUUGGGAAAAUCAUUUACCCUAAAUAAGGGUGGUGGACUAUCUUGAAGAACCCUUUCAACUCUAAAAAUUGACCCUAUCAACAACAGAGGAUUGAGCAUCA"}, "B14": {"name": "chr16:46710636:46710789:-|CDS|ENSG00000140795|control|control|control (ssRNA)", "RNA": "GGGAGUUCUACAGUCCGACGAUCGGCUUGUCCCCAUUUCUAGGGGAAACAGAUGCAGAGACCAUGAAUUUCAUUGUAAACUGUAGCUGGGAUUUUGAUGCUGACACCUUUGAAGGGCUCUCGGAGGAGGCCAAGGACUUUGUUCAACAGAGGAUUGAGCAUCA"}, "B15": {"name": "chr6:37217323:37218421:-|three_prime_utr|ENSG00000172738|control|control|control (ssRNA)", "RNA": "GGGAGUUCUACAGUCCGACGAUCAGUUCAAGACCAGCCUGGCCUUGGCAGCCAUGGCAAAACCCCGUCUCUACUAAAAAAAAUAGAAAAUUAGCCAGGCGUGGCGGCACACACCUGUAAUCCCAGCCACUUGAGAGGCUGAGACAACAGAGGAUUGAGCAUCA"}, "B16": {"name": "ENSG00000070961:be:win_2151|CDS|ENSG00000070961|bound_else_gene|NA|bound_elsewhere_windowed (ssRNA)", "RNA": "GGGAGUUCUACAGUCCGACGAUCCAUUGCUACCAAAUGUGGUAUUUUACAUCCUGGGGAAGAUUUUCUGUGCCUAGAAGGUAAAGAUUUUAACAGAAGAAUACGAAAUGAAAAAGGAGAGAUUGAGCAAGAGAGGAUAGACAACAACAGAGGAUUGAGCAUCA"}, "B17": {"name": "chrX:85271413:85271529:+|CDS|ENSG00000147180|unk|total|mutant (ssRNA)", "RNA": "GGGAGUUCUACAGUCCGACGAUCUGUGAUAAAGGUUUUCAUCGUCCUUCUGAGCUCAAAAAGCACCGUGAUAUCCAUAAGGGCCGGAAGAUUCAUCAGUGCAGGCACUGUGACUUUAAAACAUCCGAUCCAUUUAUUCUCCGUCAACAGAGGAUUGAGCAUCA"}, "B18": {"name": "chr1:168200228:168200338:+|3pUTR|ENSG00000143155|unk|total|mutant (ssRNA)", "RNA": "GGGAGUUCUACAGUCCGACGAUCUAUUUUCUGGAGUUAAAUUUGGAUGAUUUCUAAAUUAUCACAAAGUGGGACCUCAGCAGCCGUGAUGUGUGUGUCUCAUGAGCAGUGAGCACAGUCUGCAUUCAUCAUGAAACACUAUCUCAACAGAGGAUUGAGCAUCA"}, "B19": {"name": "ENSG00000101945:stop:overlap|stop_codon|ENSG00000101945|stop_codon|NA|stop_codon (ssRNA)", "RNA": "GGGAGUUCUACAGUCCGACGAUCAGAAGCGGGUCCGUAUUGAAUGCAAGUGUGGGACUGAGUCCUGCCGCAAAUACCUCUUCUAGCCCUUAGAAGUCUGAGGCCAGACUGACUGAGGGGGCCUGAAGCUACAUGCACCUCCCCCAACAGAGGAUUGAGCAUCA"}, "B20": {"name": "ENSG00000070961:be:win_501|CDS|ENSG00000070961|bound_else_gene|NA|bound_elsewhere_windowed (ssRNA)", "RNA": "GGGAGUUCUACAGUCCGACGAUCGUUAGUAACAGCUUUCAAUGACUGGAGUAAGGAAAAACAGUUUAGAGGUUUGCAGAGCCGAAUUGAACAAGAACAGAAGUUCACUGUCAUCAGGGGUGGUCAGGUCAUUCAGAUACCUGUCAACAGAGGAUUGAGCAUCA"}, "B21": {"name": "chr20:56404979:56405080:+|3pUTR|ENSG00000101138|unk|FALSE|unique (ssRNA)", "RNA": "GGGAGUUCUACAGUCCGACGAUCCCGCGCCCAGCCUUCCUGAAGCUUUUUAGAACAUGACAGUACUUCUCUGGAUUCAGCACUAGCAGAGUCAGAGAACUCUGAACUCCCCUUGUACAAACAUAAACUUUGCUUUAUAUUUAUCAACAGAGGAUUGAGCAUCA"}, "B22": {"name": "chr11:83166318:83166419:+|CDS|ENSG00000165494|unk|FALSE|unique (ssRNA)", "RNA": "GGGAGUUCUACAGUCCGACGAUCGGGACAAAACCAGGGAGAUCGAGUACUAGAAAGCGAUCAAGAUCUCGAUCACCCAAGUCUAGGUCACCAAUUAUACAUUCCCCAAAGAGAAGAGAUAGGCGGUCACCCAAACGAAGGCAACAACAGAGGAUUGAGCAUCA"}}, "note": "This is one part of the list.", "data": [{"biological_target": "T1, UNK ZnF1-6 (called full-length) (human, UniProt Q9C0B0 30-357)", "T1 sequence": "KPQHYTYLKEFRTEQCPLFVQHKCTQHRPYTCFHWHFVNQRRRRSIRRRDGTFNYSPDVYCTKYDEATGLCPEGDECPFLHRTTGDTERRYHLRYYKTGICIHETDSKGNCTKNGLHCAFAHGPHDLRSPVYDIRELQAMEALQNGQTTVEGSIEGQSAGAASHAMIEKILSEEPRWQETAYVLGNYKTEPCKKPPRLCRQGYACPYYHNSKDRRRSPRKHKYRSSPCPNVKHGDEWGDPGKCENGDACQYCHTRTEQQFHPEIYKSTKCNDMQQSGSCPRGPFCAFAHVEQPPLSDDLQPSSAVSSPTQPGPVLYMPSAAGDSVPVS", "assay": "nsRBNS (natural sequence RNA bind-n-seq); RBNS binding buffer (assumed for nsRBNS): 25 mM Tris pH 7.5, 150 mM KCl, 3 mM MgCl2, 0.01% Triton X-100, 500 ug/ml BSA, 20 U/ml SUPERase-In, 4 C; UNK is unkempt and MSI1 is Musashi-1; names of the RNAs are library labels; protein concentration not given here; high values mean tight binding", "units": {"binding signal": "enrichment R"}, "values": [{"binder": "B1", "binding signal": 0.545}, {"binder": "B2", "binding signal": 0.982}, {"binder": "B3", "binding signal": 0.538}, {"binder": "B4", "binding signal": 0.407}, {"binder": "B5", "binding signal": 0.588}, {"binder": "B6", "binding signal": 0.188}, {"binder": "B7", "binding signal": 0.683}, {"binder": "B8", "binding signal": 0.257}, {"binder": "B9", "binding signal": 0.549}, {"binder": "B10", "binding signal": 0.469}, {"binder": "B11", "binding signal": 0.656}, {"binder": "B12", "binding signal": 0.497}, {"binder": "B13", "binding signal": 0.455}, {"binder": "B14", "binding signal": 0.837}, {"binder": "B15", "binding signal": 1.22}, {"binder": "B16", "binding signal": 0.494}, {"binder": "B17", "binding signal": 0.362}, {"binder": "B18", "binding signal": 0.517}, {"binder": "B19", "binding signal": 0.806}, {"binder": "B20", "binding signal": 0.893}, {"binder": "B21", "binding signal": 0.704}, {"binder": "B22", "binding signal": 0.555}]}]}
